According to the supplement of paper PMC7826260:
The list shows a part of the results. The data describe in vitro nicking of single-stranded DNA by Rep domains at 3 µM enzyme and 37 °C for 1 h; the strands have 90 letters, of which the middle is given. Uncut reads are compared with the no-enzyme pool on a log2 scale; more negative means more cut, near 0 not cut, and no call is made. The scaling is to total reads; uncut strands gain when others are lost, and binding without cutting may add a little.

Tests used:
Assay in all cases: uncleaved DNA left, log2 of reads against the no-enzyme library (log2 ratio); higher = less cleavage (more negative = more Rep cleavage of the k-mer); sequences stand for … in CTCGTCCG…ACCGGAGA
[1] = system: T1, Rep nickase domain of Muscovy duck circovirus
T1 sequence (residues 1-111, tag not shown): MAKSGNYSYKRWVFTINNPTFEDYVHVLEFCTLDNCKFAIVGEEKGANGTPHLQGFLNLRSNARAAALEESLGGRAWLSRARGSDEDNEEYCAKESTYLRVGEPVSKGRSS
Description: (§1)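 A pool of 90-nt single-stranded DNAs with seven random bases just before the constant AC of the nick site (name = the seven bases) was cut by 3 µM recombinant His6-SUMO-tagged Rep nickase domain (300 nM DNA, 50 mM HEPES pH 8.0, 50 mM NaCl, 1 mM MnCl2, 1 h, 37 °C, three replicates). Uncut DNA was amplified and sequenced.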

[2] = system: T2, Rep nickase domain of banana bunchy top virus
T2 sequence (residues 1-94, tag not shown): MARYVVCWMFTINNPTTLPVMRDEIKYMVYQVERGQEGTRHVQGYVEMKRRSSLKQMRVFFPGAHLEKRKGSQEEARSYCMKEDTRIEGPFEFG
Description: as §1

[3] = system: T3, Rep nickase domain of cabbage leaf curl virus
T3 sequence (residues 1-116, tag not shown): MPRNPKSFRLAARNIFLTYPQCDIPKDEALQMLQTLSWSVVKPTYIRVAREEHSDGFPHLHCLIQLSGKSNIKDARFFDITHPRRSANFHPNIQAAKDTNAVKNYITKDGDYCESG
Description: as §1

[4] = system: T4, Rep nickase domain of chickpea chlorotic dwarf virus
T4 sequence (residues 1-124, tag not shown): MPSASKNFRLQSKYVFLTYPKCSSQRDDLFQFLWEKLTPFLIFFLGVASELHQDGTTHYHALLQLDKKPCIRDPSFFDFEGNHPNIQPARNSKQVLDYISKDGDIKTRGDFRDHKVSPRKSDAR
Description: as §1

[5] = system: T5, Rep nickase domain of faba bean necrotic yellows virus
T5 sequence (residues 1-98, tag not shown): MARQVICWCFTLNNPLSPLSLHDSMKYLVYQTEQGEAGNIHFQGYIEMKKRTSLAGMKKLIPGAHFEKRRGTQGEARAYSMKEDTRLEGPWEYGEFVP
Description: as §1

[6] = system: T6, Rep nickase domain of maize striate mosaic virus
T6 sequence (residues 1-117, tag not shown): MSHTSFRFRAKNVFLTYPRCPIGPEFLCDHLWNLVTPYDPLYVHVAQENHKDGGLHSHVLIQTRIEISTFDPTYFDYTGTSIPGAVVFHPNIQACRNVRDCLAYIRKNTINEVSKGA
Description: as §1

[7] = system: T7, Rep nickase domain of porcine circovirus 2
T7 sequence (residues 2-116, tag not shown): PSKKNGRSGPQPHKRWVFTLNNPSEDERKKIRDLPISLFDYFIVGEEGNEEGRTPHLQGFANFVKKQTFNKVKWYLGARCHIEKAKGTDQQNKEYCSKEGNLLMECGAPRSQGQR
Description: as §1

[8] = system: T8, Rep nickase domain of tomato golden mosaic virus
T8 sequence (residues 1-124, tag not shown): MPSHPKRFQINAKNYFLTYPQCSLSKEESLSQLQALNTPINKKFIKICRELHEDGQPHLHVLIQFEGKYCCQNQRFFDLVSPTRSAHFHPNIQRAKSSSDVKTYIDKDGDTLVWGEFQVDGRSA
Description: as §1

[9] = system: T9, Rep nickase domain of tomato yellow leaf curl virus
T9 sequence (residues 1-136, tag not shown): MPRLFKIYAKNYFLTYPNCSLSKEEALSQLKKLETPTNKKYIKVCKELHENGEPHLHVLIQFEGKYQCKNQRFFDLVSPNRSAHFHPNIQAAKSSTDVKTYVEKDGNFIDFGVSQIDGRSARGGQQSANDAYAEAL
Description: as §1

[10] = system: T10, Rep nickase domain of wheat dwarf virus
T10 sequence (residues 1-137, tag not shown): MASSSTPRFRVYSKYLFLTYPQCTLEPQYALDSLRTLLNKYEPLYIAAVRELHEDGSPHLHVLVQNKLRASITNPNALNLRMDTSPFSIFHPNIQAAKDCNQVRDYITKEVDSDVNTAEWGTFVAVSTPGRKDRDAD
Description: as §1

| Sequence | uncleaved DNA left (log2) [1] | uncleaved DNA left (log2) [2] | uncleaved DNA left (log2) [3] | uncleaved DNA left (log2) [4] | uncleaved DNA left (log2) [5] | uncleaved DNA left (log2) [6] | uncleaved DNA left (log2) [7] | uncleaved DNA left (log2) [8] | uncleaved DNA left (log2) [9] | uncleaved DNA left (log2) [10] |
| --- | --- | --- | --- | --- | --- | --- | --- | --- | --- | --- |
| CTCCGTG | -0.143 | -0.0378 | -0.556 | -0.722 | -0.13 | -1.23 | 0.0268 | -0.0549 | 0.0831 | -0.184 |
| ACAATCA | 0.0132 | 0.112 | 0.0291 | -1.07 | 0.0144 | -0.333 | 0.14 | 0.0516 | -0.0244 | 0.172 |
| TTTTAGC | -0.0665 | -0.0601 | -0.431 | -0.62 | -0.0868 | -1.17 | 0.0826 | -0.192 | -0.151 | -0.104 |
| GTAACAG | 0.0117 | 0.0969 | -0.0967 | -0.316 | -0.0272 | -0.0807 | 0.245 | 0.0561 | 0.145 | 0.194 |
| CAAGCTT | -0.059 | -0.11 | -0.239 | -0.83 | 0.196 | 1.43 | 0.0127 | -0.0611 | -0.00645 | -0.101 |
| CCCGTTG | -0.0327 | -0.0214 | -0.4 | -0.632 | -0.25 | -0.728 | 0.164 | 0.024 | 0.193 | -0.103 |
| AAGATGG | 0.153 | 0.112 | -0.0836 | 0.0587 | 0.0236 | -0.486 | 0.151 | 0.0654 | -0.0827 | -0.00546 |
| TCAAGAC | 0.02 | 0.0144 | 0.136 | 0.296 | 0.0545 | 0.0257 | 0.242 | 0.00911 | 0.00454 | 0.0443 |
| TAACCGA | 0.0225 | 0.0388 | -0.511 | -1.95 | 0.088 | -0.998 | -0.135 | -0.0621 | 0.021 | 0.0403 |
| TGTGACG | -0.0621 | -0.182 | -0.44 | -0.406 | -0.158 | -0.718 | 0.0112 | -0.12 | -0.157 | -0.136 |
| GGACCTA | -0.00171 | 0.087 | 0.741 | 1.62 | -0.00602 | 2.09 | 0.178 | -0.00501 | 0.114 | 0.184 |
| ACGTAGC | 0.115 | 0.0502 | -0.537 | -0.453 | 0.00228 | -1.02 | 0.115 | 0.00965 | 0.0257 | -0.11 |
| TTTGGTT | -0.00552 | -0.145 | 0.17 | -0.776 | -0.0487 | 0.458 | -0.303 | -0.0475 | -0.0221 | -0.03 |
| GCGGGAG | 0.165 | 0.278 | 0.0189 | 0.362 | 0.152 | -0.102 | 0.255 | 0.267 | 0.141 | -0.00429 |
| TTAAAAC | -0.056 | -0.124 | 0.0367 | -1.24 | -0.0777 | -0.393 | 0.0935 | -0.0364 | -0.115 | -0.0795 |
| GGAACTT | 0.104 | 0.17 | 0.887 | 2 | -0.0242 | 2.26 | 0.172 | -0.0115 | 0.0518 | 0.222 |
| TTGTATG | -0.0528 | -0.189 | -0.635 | -0.74 | -0.0609 | -1.13 | 0.0307 | -0.0199 | -0.0754 | -0.145 |
| CAGGACT | 0.00275 | 0.11 | 0.286 | 0.949 | 0.0645 | 1.4 | 0.0374 | 0.00581 | 0.0888 | 0.116 |
| TACTCGT | -0.765 | -0.207 | -0.399 | -1.84 | -0.0115 | -0.688 | -3.26 | -0.0211 | 0.0106 | -0.17 |
| AATCAGT | -0.0529 | 0.0247 | -0.435 | -1.3 | 0.0445 | -1.09 | -1.92 | 0.0161 | 0.0051 | -0.0874 |
| CCTTGGG | -0.191 | -0.151 | -0.928 | -0.633 | -0.0266 | -1.29 | -0.0654 | -0.155 | -0.118 | -0.159 |
| TGCCAGA | -0.00435 | -0.0217 | -0.0487 | -0.258 | -0.0847 | -0.96 | -0.0561 | -0.134 | 0.0244 | -0.0729 |
| GTTGCCT | -0.0253 | 0.00807 | 0.0569 | 0.318 | 0.0251 | 0.397 | -0.0433 | 0.0136 | 0.0692 | 0.105 |
| CTTGAGC | 0.138 | -0.049 | -0.49 | -0.721 | 0.143 | -1.04 | 0.0166 | -0.0883 | 0.0766 | 0.00398 |
| TTATGAA | 0.0373 | 0.0285 | 0.119 | -0.418 | 0.0765 | -0.31 | -0.222 | 0.0411 | -0.0129 | -0.0164 |
| TTATTGA | -0.00233 | -0.0197 | -0.174 | -0.345 | 0.00245 | -1.05 | 0.00887 | -0.0017 | 0.0686 | -0.0606 |
| ACCCCTG | 0.0721 | 0.0593 | -0.23 | -0.323 | 0.142 | -0.493 | 0.0917 | 0.103 | -0.0247 | -0.013 |
| GGATGTT | -0.778 | -0.00176 | 0.662 | 1.23 | -0.0657 | 2.02 | -2.09 | 0.0398 | -0.0761 | 0.104 |
| CCCCGGC | 0.0325 | -0.0117 | 0.212 | 0.305 | 0.147 | -0.202 | 0.187 | 0.15 | -0.0382 | -0.068 |
| ATAGCAC | 0.129 | 0.0437 | -0.111 | -0.416 | 0.0409 | -0.856 | 0.183 | 0.0564 | 0.173 | 0.0816 |
